{"source": "patent US7550559B2", "about": "“Acylsulfonamide compounds as inhibitors of hepatitis C virus NS3 serine protease” (Schering Corporation, priority 2004, dated 2009)", "data": [{"target": "Recombinant heterodimeric HCV NS3/NS4A protease (strain 1a) (Hepatitis C virus genotype 1a, UniProt P27958)", "test": "Spectrophotometric assay for HCV protease inhibitory activity (chromogenic ester substrates)", "format": "biochemical", "conditions": "HCV NS3/NS4A protease; text calls the values Ki* (Table 2)", "text": "(§1) The present invention relates to novel HCV protease inhibitors. This utility can be manifested in their ability to inhibit the HCV NS3/NS4a serine protease.\n(§2) Assay for HCV Protease Inhibitory Activity:\n(§3) Spectrophotometric Assay: Spectrophotometric assay for the HCV serine protease can be performed on the inventive compounds by following the procedure described by R. Zhang et al, Analytical Biochemistry, 270 (1999) 268-275, the disclosure of which is incorporated herein by reference. The assay based on the proteolysis of chromogenic ester substrates is suitable for the continuous monitoring of HCV NS3 protease activity. The substrates are derived from the P side of the NS5A-NS5B junction sequence (Ac-DTEDVVX(Nva), where X=A or P) (SEQ ID NO: 1) whose C-terminal carboxyl groups are esterified with one of four different chromophoric alcohols (3- or 4-nitrophenol, 7-hydroxy-4-methyl-coumarin, or 4-phenylazophenol). Illustrated below are the synthesis, characterization and application of these novel spectrophotometric ester substrates to high throughput screening and detailed kinetic evaluation of HCV NS3 protease inhibitors. Materials and Methods:\n(§4) Materials: Chemical reagents for assay related buffers are obtained from Sigma Chemical Company (St. Louis, Mo.). Reagents for peptide synthesis were from Aldrich Chemicals, Novabiochem (San Diego, Calif.), Applied Biosystems (Foster City, Calif.) and Perseptive Biosystems (Framingham, Mass.). Peptides are synthesized manually or on an automated ABI model 431A synthesizer (from Applied Biosystems). UV/VIS Spectrometer model LAMBDA 12 was from Perkin Elmer (Norwalk, Conn.) and 96-well UV plates were obtained from Corning (Corning, N.Y.). The prewarming block can be from USA Scientific (Ocala, Fla.) and the 96-well plate vortexer is from Labline Instruments (Melrose Park, Ill.). A Spectramax Plus microtiter plate reader with monochrometer is obtained from Molecular Devices (Sunnyvale, Calif.).\n(§5) Protein concentrations are determined by the Biorad dye method using recombinant HCV protease standards previously quantified by amino acid analysis. Prior to assay initiation, the enzyme storage buffer (50 mM sodium phosphate pH 8.0, 300 mM NaCl, 10% glycerol, 0.05% lauryl maltoside and 10 mM DTT) is exchanged for the assay buffer (25 mM MOPS pH 6.5, 300 mM NaCl, 10% glycerol, 0.05% lauryl maltoside, 5 μM EDTA and 5 μM DTT) utilizing a Biorad Bio-Spin P-6 prepacked column. Substrate Synthesis and Purification: The synthesis of the substrates is done as reported by R. Zhang et al, (ibid.) and is initiated by anchoring Fmoc-Nva-OH to 2-chlorotrityl chloride resin using a standard protocol (K. Barlos et al, Int. J. Pept. Protein Res., 37 (1991), 513-520). The peptides are subsequently assembled, using Fmoc chemistry, either manually or on an automatic ABI model 431 peptide synthesizer. […] The combined filtrate and DCM wash is evaporated azeotropically (or repeatedly extracted by aqueous Na2CO3 solution) to remove the acid used in cleavage. The DCM phase is dried over Na2SO4 and evaporated.\n(§6) The ester substrates are assembled using standard acid-alcohol coupling procedures (K. Holmber et al, Acta Chem. Scand., B33 (1979) 410-412). Peptide fragments are dissolved in anhydrous pyridine (30-60 mg/ml) to which 10 molar equivalents of chromophore and a catalytic amount (0.1 eq.) of para-toluenesulfonic acid (pTSA) were added. Dicyclohexylcarbodiimide (DCC, 3 eq.) is added to initiate the coupling reactions. Product formation is monitored by HPLC and can be found to be complete following 12-72 hour reaction at room temperature. Pyridine solvent is evaporated under vacuum and further removed by azeotropic evaporation with toluene.", "units": {"Ki": "nM"}, "values": [{"compound": "C=CC1C[C@]1(NC(=O)[C@@H]1[C@@H]2C(CN1C(=O)[C@@H](NC(=O)N[C@H](CN(C)S(C)(=O)=O)C(C)(C)C)C(C)(C)C)C2(C)C)C(=O)NS(=O)(=O)c1ccccc1", "note": "(stereo partly shown) [drawing 126]", "Ki": 7}, {"compound": "C=CC1C[C@]1(NC(=O)[C@@H]1[C@@H]2C(CN1C(=O)[C@@H](NC(=O)N[C@H](CN(C)S(=O)(=O)c1cccs1)C(C)(C)C)C(C)(C)C)C2(C)C)C(=O)NS(=O)(=O)c1ccccc1", "note": "(stereo partly shown) [drawing 125]", "Ki": 9}, {"compound": "C=CC1C[C@]1(NC(=O)[C@@H]1[C@@H]2C(CN1C(=O)[C@@H](NC(=O)NC1(CS(=O)(=O)C(C)(C)C)CCCCC1)C(C)(C)C)C2(C)C)C(=O)NS(=O)(=O)c1ccccc1", "note": "(stereo partly shown) [drawing 127]", "Ki": 7}]}, {"target": "Recombinant heterodimeric HCV NS3/NS4A protease (strain 1a) (Hepatitis C virus genotype 1a, UniProt P27958)", "test": "Spectrophotometric assay for HCV protease inhibitory activity (chromogenic ester substrates)", "format": "biochemical", "conditions": "HCV NS3/NS4a serine protease; category A or B (Table 1)", "text": "as §1, §2, §3, §4, §5, §6", "units": {"Ki": "nM"}, "values": [{"compound": "C=CC1C[C@]1(NC(=O)[C@@H]1[C@@H]2C(CN1C(=O)[C@@H](NC(=O)NC1(CS(=O)(=O)C(C)(C)C)CCCCC1)C(C)(C)C)C2(C)C)C(=O)NS(=O)(=O)c1ccccc1", "note": "(stereo partly shown) [Entry 10]", "Ki": "< 100"}, {"compound": "C=CC1C[C@]1(NC(=O)[C@@H]1[C@@H]2C(CN1C(=O)[C@@H](NC(=O)N[C@H](CN(C)S(C)(=O)=O)C(C)(C)C)C(C)(C)C)C2(C)C)C(=O)NS(=O)(=O)c1ccccc1", "note": "(stereo partly shown) [Entry 9]", "Ki": "< 100"}, {"compound": "CC(C)(C)OC(=O)N[C@H](C(=O)N1CC2[C@@H]([C@H]1C(=O)NC1(C(=O)NS(=O)(=O)c3ccccc3)CC1)C2(C)C)C(C)(C)C", "note": "(stereo partly shown) [Entry 2]", "Ki": "> 100"}, {"compound": "C=CC1C[C@]1(NC(=O)[C@@H]1[C@@H]2C(CN1C(=O)[C@@H](NC(=O)N[C@H](CN(C)S(=O)(=O)c1ccccn1)C(C)(C)C)C(C)(C)C)C2(C)C)C(=O)NS(=O)(=O)C1CC1", "note": "(stereo partly shown) [Entry 13]", "Ki": "< 100"}, {"compound": "C=CC1C[C@]1(NC(=O)[C@@H]1[C@@H]2C(CN1C(=O)[C@@H](NC(=O)N[C@H](CN(C)S(=O)(=O)c1cccs1)C(C)(C)C)C(C)(C)C)C2(C)C)C(=O)NS(=O)(=O)c1ccccc1", "note": "(stereo partly shown) [Entry 6]", "Ki": "< 100"}, {"compound": "C=CC1C[C@]1(NC(=O)[C@@H]1[C@@H]2C(CN1C(=O)[C@@H](NC(=O)OC(C)(C)C)C(C)(C)C)C2(C)C)C(=O)NS(=O)(=O)C1CC1", "note": "(stereo partly shown) [Entry 12]", "Ki": "< 100"}, {"compound": "C=CC1C[C@]1(NC(=O)[C@@H]1[C@@H]2C(CN1C(=O)[C@@H](NC(=O)N[C@H](CN(C)S(C)(=O)=O)C(C)(C)C)C(C)(C)C)C2(C)C)C(=O)NS(=O)(=O)C1CC1", "note": "(stereo partly shown) [Entry 14]", "Ki": "< 100"}, {"compound": "C=CC1C[C@]1(NC(=O)[C@@H]1[C@@H]2C(CN1C(=O)[C@@H](NC(=O)NC(C)(C)C)C(C)(C)C)C2(C)C)C(=O)NS(=O)(=O)c1ccccc1", "note": "(stereo partly shown) [Entry 8]", "Ki": "> 100"}, {"compound": "CN(C[C@@H](NC(=O)N[C@H](C(=O)N1CC2[C@@H]([C@H]1C(=O)NC1(C(=O)NS(=O)(=O)c3ccccc3)CC1)C2(C)C)C(C)(C)C)C(C)(C)C)S(=O)(=O)c1cccs1", "note": "(stereo partly shown) [Entry 11]", "Ki": "> 100"}, {"compound": "C=CC1C[C@]1(NC(=O)[C@@H]1[C@@H]2C(CN1C(=O)[C@@H](NC(=O)OC(C)(C)C)C(C)(C)C)C2(C)C)C(=O)NS(=O)(=O)c1ccccc1", "note": "(stereo partly shown) [Entry 5]", "Ki": "> 100"}, {"compound": "CC(C)(C)NC(=O)N[C@H](C(=O)N1CC2[C@@H]([C@H]1C(=O)NC1(C(=O)NS(=O)(=O)c3ccccc3)CC1)C2(C)C)C(C)(C)C", "note": "(stereo partly shown) [Entry 3]", "Ki": "> 100"}, {"compound": "C=CC1C[C@]1(NC(=O)[C@@H]1[C@@H]2C(CN1C(=O)[C@@H](NC(=O)N[C@H](C(=O)C1CC1)C(C)C)C(C)(C)C)C2(C)C)C(=O)NS(=O)(=O)c1ccccc1", "note": "(stereo partly shown) [Entry 7]", "Ki": "< 100"}, {"compound": "CC(C)[C@H](NC(=O)N[C@H](C(=O)N1CC2[C@@H]([C@H]1C(=O)NC1(C(=O)NS(=O)(=O)c3ccccc3)CC1)C2(C)C)C(C)(C)C)C(=O)C1CC1", "note": "(stereo partly shown) [Entry 4]", "Ki": "> 100"}]}]}
